Laboratory results from PubChem BioAssay AID1347043 (National Center for Advancing Translational Sciences (NCATS), 2019).
The whole screen tested about 76,000 compounds, of which about 1,900 (2.5%) were called active. This list was built around the results that the source calls inconclusive (neither active nor inactive); the mix of calls is not that of the screen. Calls follow the shape of the dose curve; as a rule, active = well fitted inhibition curve with a large enough effect; inconclusive = small, poorly fitted or top-dose-only effect; inactive = flat fitted curve, though single readings scatter. Potencies of inconclusive entries are doubtful fits and often do not repeat.

target: Luciferin 4-monooxygenase (Photinus pyralis) (UniProt P08659); experiment: Firefly luciferase inhibition profiling of diverse chemical library using quantitative high-throughput screening; also: nearly all actives have a fitted effect of over 65% in size; conditions: purified P. pyralis luciferase, luminescence, biochemical; activity change, negative = inhibition: at 115 µM (top of the series) unless noted
Chain of UniProt P08659 (P08659 whole entry, looked up): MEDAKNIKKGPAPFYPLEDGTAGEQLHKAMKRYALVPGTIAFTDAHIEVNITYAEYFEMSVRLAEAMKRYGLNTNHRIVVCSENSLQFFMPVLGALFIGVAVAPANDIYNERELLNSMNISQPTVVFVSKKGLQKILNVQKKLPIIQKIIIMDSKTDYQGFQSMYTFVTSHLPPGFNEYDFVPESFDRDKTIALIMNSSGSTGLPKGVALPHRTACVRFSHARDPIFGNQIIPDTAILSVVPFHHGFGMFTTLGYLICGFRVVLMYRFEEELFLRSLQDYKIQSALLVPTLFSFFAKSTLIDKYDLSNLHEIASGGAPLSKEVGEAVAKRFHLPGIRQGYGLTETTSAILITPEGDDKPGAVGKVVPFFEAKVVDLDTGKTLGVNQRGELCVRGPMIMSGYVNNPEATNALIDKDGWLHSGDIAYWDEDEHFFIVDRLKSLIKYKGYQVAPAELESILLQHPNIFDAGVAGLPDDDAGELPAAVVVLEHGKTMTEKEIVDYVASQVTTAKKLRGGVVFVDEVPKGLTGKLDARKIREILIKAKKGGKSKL
Description: Firefly (Photinus pyralis) luciferase is one of the most commonly used transcriptional reporters for a number of reasons. It is considered one of the more dynamically responsive reporters - that is, responsive to changes in reporter transcription - as it requires no post-translational modifications and is enzymatically active directly after protein synthesis (Wood, 1998). Additionally, the half-life of the luciferase protein is short relative to other reporter-gene products (Wood, 1995). Whereas reporters with long half-lives potentially allow for increased signal due to accumulation of reporter-gene product, once accumulated in the cell, dynamic changes in reporter-gene expression may be difficult to detect(Fan and Wood, 2007; Almond et al., 2004). It has been shown that wild-type P. pyralis luciferase has a half-life of approximately four hours in mammalian cells (Thompson et al., 1991). Firefly luciferase reporter-gene assays are also generally considered one of the most sensitive assay types (Wood, 1995; Wood, 1998). Although light produced in a bioluminescence reaction is of lower intensity than that produced during fluorescence emission, this is offset by little to no background light inherent to luminescent assays. Thus the luciferase reporter can be expressed at much lower levels than fluorescent proteins while still providing robust signal. However, it was initially observed, in 1991, by Thompson et al., that compounds that resemble the substrates of firefly luciferase (FLuc) can act as competitive inhibitors of the enzyme, and that these compounds, upon interaction with luciferase in the cell, can actually stabilize the protein and increase its half-life. Accumulated intracellular FLuc protein can be measured as an increase in luminescence signal, upon addition of detection reagents (which contain high concentrations of FLuc substrates) commonly used in high-throughput screening. In cell-based reporter gene assays that use FLuc as the reporter gene to quantitate the potential influence of a given compound against the target biology, this apparent increase in luminescence can mistakenly be interpreted as identification of a compound that is active against the target of interest. FLuc inhibitory compounds that stabilize the FLuc protein will give an identical read-out, making it difficult to distinguish compounds that are active against the target from those active against FLuc. In summary, the results generated here constitutes a valuable resource for the scientific community and provides insight on identifying compounds with inhibitory activity for the commonly-used reporter, firefly luciferase. References: -Almond, B., Zdanovsky, A., Zdanovskaia, M., Ma, D., Stecha, P., Paguio, A., Garvin, D., and Wood, K. (2004). Introducing the Rapid Response Reporter Vectors. Promega Notes 87, 18-22. -Fan, F., and Wood, K.V. (2007). Bioluminescent assays for high-throughput screening. Assay Drug Dev Technol 5, 127-136. -Thompson, J.F., Hayes, L.S., and Lloyd, D.B. (1991). Modulation of firefly luciferase stability and impact on studies of gene regulation. Gene 103, 171-177. -Wood, K.V. (1998). The chemistry of bioluminescent reporter assays. Promega Notes 65, 14-20. -Wood, K.V. (1995). Marker proteins for gene expression. Curr Opin Biotechnol 6, 50-58.
Reagents: 50mM Tris acetate, pH 7.5; 10mM Mg acetate; 10uM D-luciferin (Sigma #L9504); 10uM ATP; 0.01% Tween-20; 0.05% BSA; 10nM P. pyralis luciferase (Sigma #L9506) Control compounds used were two known firefly luciferase inhibitors (compounds (2) and (5) in Auld et al., 2010), and DMSO. Assay Summary: Three microliters containing firefly luciferase substrates in buffer (final concentrations: 50mM Tris acetate, pH 7.5, 10mM Mg acetate, 0.01% Tween-20, 0.05% BSA, 10uM D-luciferin, and 10uM ATP) are dispensed into each well of a Greiner white, solid-bottom 1536-well format plate using a flying reagent dispenser (FRD). […]
% is scaled to controls: 0 for no effect and ±100 for the full control effect; tags tell the direction and shape of the fitted curve.

Question: With CC(C)(C)CC(=O)Nc1cnc(-c2cccc(Cl)c2)nc1 as the compound, how does the Potency read?
Answer: active: 0.251 µM

Question: For COCCOc1ccc2c(n1)CCN(C(=O)c1ccc(C(C)C)cc1)C2, which Potency is on record?
Answer: active: 15.8 µM

Question: Cc1ccccc1OCc1nc(C2CN(C(=O)c3cc4ccccc4[nH]3)C2)no1 was tested. Which Potency did it give?
Answer: inconclusive: 20 µM [inhibitor, partial curve]

Question: CC1CCN(C(=O)c2cc(CN3CCC(Cc4ccccc4)CC3)on2)CC1 was tested. Which “activity change, negative = inhibition” value did it give?
Answer: inactive: -2.52%

Question: Which Potency does the source give for COc1ccc(-c2ccc3ccccc3n2)c(OC)c1OC here?
Answer: inconclusive: 50.1 µM [inhibitor, partial curve, poor fit]

Question: Cn1cccc1C(=O)N[C@H]1C[C@@H](C(=O)O)N(C(=O)CCCC(=O)N2C[C@@H](NC(=O)c3cccs3)C[C@H]2C(=O)O)C1 was tested. Which “activity change, negative = inhibition” value did it give?
Answer: inactive: 0.718%

Question: Which “activity change, negative = inhibition” value does the source give for COc1cccc([S+](=O)([O-])N2CCC3(CC2)C(=O)Nc2ccccc23)c1 here?
Answer: inactive: 0.175% [at 172 µM]

Question: COc1cc(NC(=O)C2CCN(C(=O)c3ncn4c3COC(c3ccccc3)C4)CC2)cc(OC)c1 (stereo not given) was tested. Which Potency did it give?
Answer: active: 25.1 µM

Question: How did the Potency turn out when Cn1cc(CN2CCNc3cc(Nc4ccccc4)ncc3C2)cn1 was run?
Answer: active: 28.2 µM

Question: CCc1ccc(NC(=O)Cn2c(N(C)Cc3ccccc3)nc(C)cc2=O)cc1 was tested. Which “activity change, negative = inhibition” value did it give?
Answer: inactive: 7.71%

Question: Cc1ccc(-n2nc(C)c([C@@H]3C=C[C@@H](NC(=O)Nc4ccc(Cl)cc4)C3)c2C)cc1Cl was tested. Which Potency did it give?
Answer: active: 10 µM

Question: COc1ccc(Nc2cnc3ccc(-c4cccc(CO)c4)nn23)cc1 was tested. Which Potency did it give?
Answer: inconclusive: 50.1 µM [inhibitor, partial curve]

Question: O=C(O)COc1ccc(-c2nccc3c2C(=O)N(Cc2c[nH]c4ccccc24)CC(COc2ccc(F)c(F)c2)O3)cc1 (stereo not given) was tested. Which Potency did it give?
Answer: inconclusive: 56.2 µM [inhibitor, partial curve]

Question: With Cc1cc(NC(=O)c2ccc3c(c2)N(C)C2CCCCCN2C3=O)ccc1F (stereo not given) as the compound, how does the Potency read?
Answer: active: 17.8 µM

Question: O=C(Nc1cccc(F)c1)c1cc(-c2ccc[nH]2)n[nH]1 was tested. Which Potency did it give?
Answer: active: 2.24 µM

Question: With O=C(c1cc2ccccc2[nH]1)N1CCNc2cnc(Nc3ccccc3)nc2C1 as the compound, how does the Potency read?
Answer: inconclusive: 44.7 µM [inhibitor, partial curve, poor fit]

Question: O=C(N1CCC(c2nc(-c3ccccc3)no2)C1)C1(c2ccccc2)CC1 (stereo not given) was tested. Which “activity change, negative = inhibition” value did it give?
Answer: inactive: 6.79%

Question: Which “activity change, negative = inhibition” value does the source give for Cc1cc(=O)n(CC(=O)Nc2cccc(F)c2)c(N2CCc3ccccc3C2)n1 here?
Answer: inactive: 6.96%

Question: For CC1=NS(=O)(=O)N(C)C=C1C(=O)OCc1nc(-c2ccc(Cl)cc2)no1, which Potency is on record?
Answer: inconclusive: 35.5 µM [inhibitor, partial curve]

Question: Which “activity change, negative = inhibition” value does the source give for O=C(NC1CCCCC1)c1cnc2c(c1)N([S+](=O)([O-])c1cccnc1)CCC2 here?
Answer: inactive: 6.41% [at 172 µM]

Question: Cc1cccc(-c2noc([C@@H]3C[C@@H](O)CN3Cc3cccc(C#N)c3)n2)c1 was tested. Which Potency did it give?
Answer: inconclusive: 79.4 µM [inhibitor, partial curve, poor fit]

Question: Cc1ccc(-c2noc([C@@H]3Cc4nc[nH]c4CN3CC3CCCCC3)n2)cc1 was tested. Which Potency did it give?
Answer: inconclusive: 126 µM [inhibitor, single point]

Question: O=C(Nc1ccc([C@H]2OCC(=O)N(C3CCOCC3)[C@@H]2CO)cc1)c1ccc(F)c(Cl)c1 was tested. Which Potency did it give?
Answer: inconclusive: 70.8 µM [inhibitor, partial curve, poor fit]

Question: Which Potency does the source give for COCCNc1ncc(-c2cccc(O)c2)c2c1OCC2 here?
Answer: active: 28.2 µM

Question: Cn1nccc1C(=O)N1CCC(c2noc(C3CC3)n2)C1 (stereo not given) was tested. Which “activity change, negative = inhibition” value did it give?
Answer: inactive: 3.88%

Question: Which Potency does the source give for CC(Nc1ccc(-c2nc(CCCc3ccccc3)no2)cn1)c1cnn(C)c1 (stereo not given) here?
Answer: active: 15.8 µM

Question: How did the Potency turn out when COc1cccc(-c2cc3c(=O)n(CCNC(=O)Cc4c[nH]c5ccccc45)ccn3n2)c1 was run?
Answer: inconclusive: 3.98 µM [inhibitor, full curve, poor fit]

Question: For c1ccc(-c2noc(-c3cncnc3N3CCCCCC3)n2)cc1, which Potency is on record?
Answer: inconclusive: 50.1 µM [inhibitor, partial curve]

Question: CC(=O)NC[C@H]1CCN(S(=O)(=O)c2ccc(F)c(Cl)c2)C[C@H]1N(C)C was tested. Which “activity change, negative = inhibition” value did it give?
Answer: inactive: 4.67%

Question: O=C(NC1CCCN(c2cc(-c3ccccc3)[nH]n2)C1)c1ccc2[nH]ccc2c1 (stereo not given) was tested. Which Potency did it give?
Answer: active: 31.6 µM

Question: With COC(=O)c1ccccc1S(=O)(=O)N1CCC(c2cc(-c3cccc(C)c3)n[nH]2)CC1 as the compound, how does the “activity change, negative = inhibition” value read?
Answer: inactive: 5.17%

Question: For O=C(c1ccc(-c2ccco2)cc1)N1CCOC(c2ccccc2)C1 (stereo not given), which Potency is on record?
Answer: inconclusive: 10 µM [inhibitor, full curve, poor fit]

Question: O=C(Nc1ccccc1)Nc1ccc([C@@H](O)[C@H]2COCC(=O)N2CC2CC2)cc1 was tested. Which Potency did it give?
Answer: inconclusive: 70.8 µM [inhibitor, partial curve]

Question: Which Potency does the source give for CCOc1ccc(C2Cn3nnc(-c4nc(-c5ccccc5C)no4)c3CO2)cc1 (stereo not given) here?
Answer: inconclusive: 44.7 µM [inhibitor, partial curve]

Question: O=C1CC(c2ccccc2)N(Cc2ccncc2)CCCN(C(=O)CCCc2ccccc2)CCN1 (stereo not given) was tested. Which “activity change, negative = inhibition” value did it give?
Answer: inactive: 2.15%
